The supplement of paper PMC10369915
The other results are listed elsewhere or left out. Rule as the data show it: active = 3.2 or more and inactive = the rest. Most of these values are background signal.

What follows are binders tested against SHP2 C-SH2 domain E139D (assay: enrichment score (SH2-bound / input frequency) (ratio); bacterial display of known human phosphotyrosine sites (pTyr-Var adds point mutants) read by sequencing; higher = stronger binding; tyrosines were phosphorylated by kinases first). Settings: peptide library: pTyr-Var.
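Also: displayed peptides selected on beads carrying the immobilized SH2 domain, with library peptides lacking any tyrosine serving as negative controls.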

Enrichment score, inactive:
LAGRFYALRSM [CKB_Y174_K177R_YF] 2.21
GVYSRHFTTYD [CLCA1_Y661_Y661H] 0.915
GVFSRYFTTFD [CLCA1_Y661_YF] 0.733
RFFTTYDTNGR [CLCA1_Y665_YF] 1.14
TRGLEYIVPLM [CLCN4_Y548_G544R] 1.14
VVLEDYLDIKN [CLCNKB_Y138] 0.633
ATHSGYRLNDY [CLDN14_Y233] 0.756
ESKAGYRVPRS [CLDN7_Y195] 0.616
FFHCTYKQRMI [CLEC12A_Y242_K244Q_YF] 2.33
SMEGLYSSTQD [CLIC5_Y111] 0.778

What follows are binders tested against SHP2 C-SH2 domain wild-type in the same assay as above. Settings: peptide library: pTyr-Var.

Enrichment score, inactive:
LAGRFYALRSM [CKB_Y174_K177R_YF] 2.45
GVYSRHFTTYD [CLCA1_Y661_Y661H] 0.687
GVFSRYFTTFD [CLCA1_Y661_YF] 0.733
RFFTTYDTNGR [CLCA1_Y665_YF] 0.855
TRGLEYIVPLM [CLCN4_Y548_G544R] 1.13
VVLEDYLDIKN [CLCNKB_Y138] 0.769
ATHSGYRLNDY [CLDN14_Y233] 0.824
ESKAGYRVPRS [CLDN7_Y195] 0.629
FFHCTYKQRMI [CLEC12A_Y242_K244Q_YF] 2.73
SMEGLYSSTQD [CLIC5_Y111] 1.02

Each binder was assayed against SHP2 N-SH2 domain L43F in the same assay as above. Settings: peptide library: pTyr-Var.

Enrichment score, inactive:
LAGRFYALRSM [CKB_Y174_K177R_YF] 1.91
GVYSRHFTTYD [CLCA1_Y661_Y661H] 0.615
GVFSRYFTTFD [CLCA1_Y661_YF] 0.65
RFFTTYDTNGR [CLCA1_Y665_YF] 1.19
VVLEDYLDIKN [CLCNKB_Y138] 0.574
ATHSGYRLNDY [CLDN14_Y233] 0.691
ESKAGYRVPRS [CLDN7_Y195] 0.728
FFHCTYKQRMI [CLEC12A_Y242_K244Q_YF] 2.63
SMEGLYSSTQD [CLIC5_Y111] 1.02

Enrichment score, active:
TRGLEYIVPLM [CLCN4_Y548_G544R] 3.8

The binders below were run against SHP2 N-SH2 domain T42A in the same assay as above. Settings: peptide library: pTyr-Var.

Enrichment score, inactive:
LAGRFYALRSM [CKB_Y174_K177R_YF] 2.04
GVYSRHFTTYD [CLCA1_Y661_Y661H] 0.763
GVFSRYFTTFD [CLCA1_Y661_YF] 0.829
RFFTTYDTNGR [CLCA1_Y665_YF] 0.929
VVLEDYLDIKN [CLCNKB_Y138] 0.532
ATHSGYRLNDY [CLDN14_Y233] 0.639
ESKAGYRVPRS [CLDN7_Y195] 0.456
FFHCTYKQRMI [CLEC12A_Y242_K244Q_YF] 2.21
SMEGLYSSTQD [CLIC5_Y111] 0.673

Enrichment score, active:
TRGLEYIVPLM [CLCN4_Y548_G544R] 4.35

These binders were tested against SHP2 N-SH2 domain T52S in the same assay as above. Settings: peptide library: pTyr-Var.

Enrichment score, active:
TRGLEYIVPLM [CLCN4_Y548_G544R] 3.98

Enrichment score, inactive:
LAGRFYALRSM [CKB_Y174_K177R_YF] 2.24
GVYSRHFTTYD [CLCA1_Y661_Y661H] 0.758
GVFSRYFTTFD [CLCA1_Y661_YF] 0.654
RFFTTYDTNGR [CLCA1_Y665_YF] 1.07
VVLEDYLDIKN [CLCNKB_Y138] 0.714
ATHSGYRLNDY [CLDN14_Y233] 0.744
ESKAGYRVPRS [CLDN7_Y195] 0.554
FFHCTYKQRMI [CLEC12A_Y242_K244Q_YF] 2.59
SMEGLYSSTQD [CLIC5_Y111] 1.14

The binders below were run against SHP2 N-SH2 domain wild-type in the same assay as above. Settings: peptide library: pTyr-Var.

Enrichment score, active:
FFHCTYKQRMI [CLEC12A_Y242_K244Q_YF] 3.21

Enrichment score, inactive:
LAGRFYALRSM [CKB_Y174_K177R_YF] 1.7
GVYSRHFTTYD [CLCA1_Y661_Y661H] 0.8
GVFSRYFTTFD [CLCA1_Y661_YF] 0.624
RFFTTYDTNGR [CLCA1_Y665_YF] 1.17
TRGLEYIVPLM [CLCN4_Y548_G544R] 1.41
VVLEDYLDIKN [CLCNKB_Y138] 0.652
ATHSGYRLNDY [CLDN14_Y233] 0.724
ESKAGYRVPRS [CLDN7_Y195] 0.603
SMEGLYSSTQD [CLIC5_Y111] 0.913
